From PubChem BioAssay AID651820 (National Center for Advancing Translational Sciences (NCATS), 2012)
“And” between values parts separate entries of the source, which are not always exact repeats. Equal entries are not always repeated. In all, about 340,000 compounds went through this assay and about 12,000 (3.5%) were called active. Inconclusive results, whose numbers are uncertain, are shown with a selection of clear calls. Calls follow the shape of the dose curve; as a rule, active = well fitted inhibition curve with a large enough effect; inconclusive = small, poorly fitted or top-dose-only effect, or another doubt; inactive = no such curve, though single readings can be large or run the other way. No potency is given beside an inconclusive call; the fits are too rough. Where a structure was tested more than once in an assay, its records may differ in their call.

Experiment: qHTS Assay for Inhibitors of Hepatitis C Virus (HCV)
Conditions: Huh7.5.1 HCVcc-Cre (HCVcc is cell-culture hepatitis C virus) infection, luciferase reporter, 44 h; activity change, negative = inhibition: at 41.8 µM (top of the series) unless noted
How it was run: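 A cell-based infection assay in which seeded cells (1,000 per well) receive test compound after 4 h, are inoculated with HCVcc-Cre at approximately 0.5 moi, and are incubated 44 h before luminescence detection.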
% is scaled to controls: 0 for no effect and ±100 for the full control effect; potency is read from the fitted curve at half-maximal effect; tags tell the direction and shape of the fitted curve.

Q: For Cc1ccc(OCc2nnc(SCC(=O)Nc3ccc4c(c3)OCCO4)n2Cc2ccco2)cc1, which Potency is on record?
A: inconclusive [inhibitor, single point]

Q: With N[C@@H](Cc1cc(I)c(Oc2ccc(O)c(I)c2)c(I)c1)C(=O)O as the compound, how does the Potency read?
A: inconclusive [inhibitor, partial curve]

Q: Which Potency does the source give for COc1ccc(-c2noc(CCC(=O)NCCCN3CCN(c4ccccc4F)CC3)n2)cc1 here?
A: inconclusive [inhibitor, single point]

Q: For CC(C(=O)Nc1ccc(O)cc1)c1cccc(C(=O)c2ccccc2)c1 (stereo not drawn), which Potency is on record?
A: active: 12.6 µM

Q: With O=c1c(-c2ccnn2-c2ccc(F)cc2)cnc2n1CCS2 as the compound, how does the “activity change, negative = inhibition” value read?
A: inactive: 8.9%

Q: With Cc1ccccc1COC[C@H](CC(C)C)N1CCN(C(=O)c2cccc(C(F)(F)F)c2)CCC1=O as the compound, how does the Potency read?
A: inconclusive [inhibitor, single point]

Q: For COc1ccccc1Nc1nc(N)nc(CSc2nccc(C)n2)n1, which “activity change, negative = inhibition” value is on record?
A: inactive: 7.57%

Q: Which Potency does the source give for Cc1ccc(/C=N/N2CCN(C3c4ccccc4-c4ccccc43)CC2)o1 here?
A: inconclusive [inhibitor, partial curve]

Q: With CCOC(=O)/C(=C/c1c2ccccc2cc2ccccc12)NC(=O)c1ccccc1 as the compound, how does the Potency read?
A: inconclusive [inhibitor, partial curve]

Q: Which Potency does the source give for CCN1CCN(Cc2ccc(NC(=O)c3cc(NC(=O)N4CCNC4=O)cc(OC)c3)cc2C(F)(F)F)CC1 here?
A: inconclusive [inhibitor, partial curve]

Q: With COc1ccc(NC(=O)c2cc(C)n(Cc3cccs3)c2C)cc1 as the compound, how does the Potency read?
A: inconclusive [inhibitor, single point]

Q: For O=C(COC(=O)/C=C/c1ccc2c(c1)OCO2)Nc1ccccc1, which “activity change, negative = inhibition” value is on record?
A: inactive: -20.7%

Q: Which “activity change, negative = inhibition” value does the source give for Nc1c(-c2cccc(Cl)c2)cnc2c(-c3ccccc3)cnn12 here?
A: inactive: 3.93%

Q: With C=C(c1ccc2nc(NC(=O)OC)[nH]c2c1)c1cccs1 as the compound, how does the Potency read?
A: inconclusive [inhibitor, full curve]

Q: Which Potency does the source give for CCn1c(=O)c(C(=O)NNC(=O)Cc2ccccc2)c(O)c2ccccc21 here?
A: inconclusive [inhibitor, single point]

Q: With Cc1nc(SCC(=O)NC2CCCCC2)[nH]c(=O)c1C as the compound, how does the Potency read?
A: inconclusive [inhibitor, single point]

Q: For CO/N=C/C(=N\Nc1ccc(C)cc1)C(=O)c1ccc(OC)cc1, which Potency is on record?
A: inconclusive [inhibitor, full curve]

Q: With CCN1CCN(CC(=O)N2c3ccccc3Sc3ccccc32)CC1 as the compound, how does the Potency read?
A: inconclusive [inhibitor, single point]

Q: With CN(CC(=O)Nc1cccc(F)c1)C(=O)c1ccccc1Sc1ccccc1C#N as the compound, how does the Potency read?
A: inconclusive [inhibitor, single point]

Q: With Cc1cc(NCCCOC(C)C)n2c(nc3ccccc32)c1C#N as the compound, how does the Potency read?
A: inconclusive [inhibitor, partial curve]

Q: With Cc1ccc(NC2=Nc3ccccc3N3C2=Nc2c(c(C)nn2-c2ccccc2)C3c2ccc(O)c(O)c2)cc1 (stereo not drawn) as the compound, how does the “activity change, negative = inhibition” value read?
A: inactive: -71.9%

Q: With Cc1cccc(C(=O)NNC(=O)c2c(-c3ccccc3Cl)noc2C)c1O as the compound, how does the “activity change, negative = inhibition” value read?
A: inactive: -7.21%

Q: With O=C(N/N=C/c1cccc(F)c1)c1cc(-c2ccco2)nc2ccccc12 as the compound, how does the Potency read?
A: inconclusive [inhibitor, single point]

Q: With CCn1c(SCC(=O)Nc2cc(C)c(Cl)cc2OC)nnc1-c1ccco1 as the compound, how does the Potency read?
A: inconclusive [inhibitor, full curve]

Q: For COC(=O)c1[nH]c2c(c1C)C(=O)CC(c1cccs1)C2 (stereo not drawn), which Potency is on record?
A: inconclusive [inhibitor, full curve, poor fit]

Q: Which Potency does the source give for Cc1ccc(C(=O)CSc2nnc3c4ccccc4nc(C(C)(C)C)n23)cc1 here?
A: inconclusive [inhibitor, single point]

Q: For CN(CCC#N)C(=O)COC(=O)c1ccc2[nH]c3c(c2c1)CCCC3, which Potency is on record?
A: inconclusive [inhibitor, single point]

Q: Which “activity change, negative = inhibition” value does the source give for COC(=O)c1sc(NC(=S)NC(=O)c2ccccc2)nc1C here?
A: inactive: 2.23%

Q: Which Potency does the source give for CC(C(=O)c1ccc(-c2ccccc2)cc1)[n+]1ccccc1 (stereo not drawn) here?
A: inconclusive [inhibitor, partial curve]

Q: With CCC(=NCC1CCCO1)c1c(O)n(Cc2ccccc2)c(=O)[nH]c1=O (stereo not drawn) as the compound, how does the “activity change, negative = inhibition” value read?
A: inactive: 13.8%

Q: For Cc1nc2ccccc2c(=O)n1/N=C/c1ccc(O)cc1O, which “activity change, negative = inhibition” value is on record?
A: inactive: -12.3%

Q: Which Potency does the source give for COc1ccccc1NC(=O)COc1cc(Br)c(CNCCCN2CCOCC2)cc1OC here?
A: active: 11.2 µM

Q: With CC(=O)c1c(C)[nH]c(C(=O)/C(C#N)=C/c2cccc(C)c2)c1C as the compound, how does the Potency read?
A: inconclusive [inhibitor, single point]

Q: Which “activity change, negative = inhibition” value does the source give for COc1ccc(CN2C(=O)C(Cc3ccccc3)Nc3ncnc(N4CCCCC4)c32)cc1 (stereo not drawn) here?
A: inactive: -28.5%

Q: With CC(C)CC(N(C)C)C1(c2ccc(Cl)cc2)CCC1 (stereo not drawn) as the compound, how does the Potency read?
A: inactive and active: 3.55 µM

Q: For COc1cccc(CNc2nnnn2C)c1OC, which “activity change, negative = inhibition” value is on record?
A: inactive: 8.75%

Q: For CC(C)CC(=O)NC(=S)NNC(=O)c1ccc(NC(=O)C2CCCCC2)cc1, which Potency is on record?
A: inconclusive [inhibitor, partial curve]

Q: Which “activity change, negative = inhibition” value does the source give for O=C(/C=C/c1ccc(-c2ccccc2)cc1)NCc1cccnc1 here?
A: inactive: -11.8%

Q: Which “activity change, negative = inhibition” value does the source give for CC[C@H](C)[C@@H]1NC(=O)[C@H]([C@@H](C)CC)NC(=O)[C@@H](CC(C)C)NC(=O)[C@H](Cc2ccccc2)NC(=O)[C@H](Cc2ccccc2)NC(=O)[C@@H]2CCCN2C(=O)[C@@H]2CCCN2C(=O)[C@H](C(C)C)NC(=O)[C@H](CC(C)C)NC1=O here?
A: inactive: -24.8%

Q: With COc1ccc2c(c1)c(CCNNC(=O)C(C)(C)C)c(C)n2C(=O)c1ccc(Cl)cc1 as the compound, how does the Potency read?
A: inconclusive [inhibitor, partial curve]

Q: With COc1cc(C(=O)NC(=S)NNC(=O)c2ccc3c(c2)OCO3)cc(OC)c1OC as the compound, how does the Potency read?
A: inconclusive [inhibitor, single point]

Q: Which Potency does the source give for Cc1cc(C)c(CN2CCC(n3nccc3NC(=O)C3CCCC3)CC2)cc1C here?
A: inconclusive [inhibitor, single point]

Q: For Cc1cc(NC(=O)c2ccc(S(=O)(=O)Nc3ccccc3)cc2)no1, which Potency is on record?
A: inconclusive [inhibitor, single point]
